Source: patent publication US20260103529A1, “Amino Acid Sequences Directed Against the Melanocortin 4 Receptor and Polypeptides Comprising the Same for the Treatment of MC4R-Related Diseases and Disorders” (Confo Therapeutics N.V., priority 2022, published 2026)

Columns and labels:
[1] = test system: DIO mice; experiment: Diet-induced obese (DIO) mouse study, 14-day subcutaneous administration; type: in vivo
Protocol: The mouse studies described in Examples 2 and 3 were performed at a fully AAALAC accredited unit (Gubra, Denmark), and all animal experiments were conducted in accordance with the CRO's bioethical guidelines, which are fully compliant to internationally accepted principles for the care and use of laboratory animals. All experiments were licensed by the Danish Animal Experimentation Council. This animal model is based on male C57BI/6J mice that are fed for a minimum of 18 weeks a 60% high fat diet that result in rapid weight gain. The mice were obtained from commercial vendors in Europe and United States transferred to Gubra's animal unit. The animal room environment is controlled (targeted ranges: temperature 21±2° C.; relative humidity 50±10%). The animals are maintained on a reversed 12 h light/dark cycle and have access to plenty of bedding material, shelters and chewing sticks. Animals were dosed just before lights went off.
Male DIO mice (5 weeks of age at time of arrival and HF diet induction, 45 weeks of age at study start, n=50) had ad libitum access to 60% high fat diet (D12492, Research diets) and water. On study day−2, the mice were randomized into five treatment groups (n=10) based on body weight. […] Body weight and food intake were measured daily starting from day−3. On the day of termination, plasma samples were collected from the groups receiving pN2113. At termination, the livers were weighed, and liver samples collected for all groups.

[2] = test system: MC4R; experiment: Radioligand displacement, CHO stable cell line; type: binding; conditions: mean ± spread, n = 2
[3] = target: T1, human wild type MC4R (Homo sapiens, UniProt P32245); experiment: cAMP GloSensor assay, MC4R; type: cell-based; set-up: Flag; expressed in transfected cells; host or cells: HEK293T; conditions: Promega GloSensor, HEK293 transiently transfected, real-time
T1 sequence (P32245 1-332): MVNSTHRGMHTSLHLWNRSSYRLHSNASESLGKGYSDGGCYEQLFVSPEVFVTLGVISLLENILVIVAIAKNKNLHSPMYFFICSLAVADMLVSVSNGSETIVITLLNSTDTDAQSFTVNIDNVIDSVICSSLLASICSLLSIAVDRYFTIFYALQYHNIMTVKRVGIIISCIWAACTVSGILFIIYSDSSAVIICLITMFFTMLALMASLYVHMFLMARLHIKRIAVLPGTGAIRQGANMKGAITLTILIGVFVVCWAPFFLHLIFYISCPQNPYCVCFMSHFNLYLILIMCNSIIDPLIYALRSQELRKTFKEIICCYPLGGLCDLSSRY
Protocol: To confirm MC4R activation, dose-dependent nanobody-induced cAMP signaling was assessed (Lance Ultra HTRF). […] Binding of pN162 to the human melanocortin receptor subtypes MC1R, MC2R, MC3R, MC4R or MC5R transiently expressed as Flag-tagged receptors in HEK293T cells was assessed by flow cytometry.
HEK 293T cells were routinely maintained at 37° C., 5% CO2, under humidified atmosphere in Dulbecco's modified Eagle's medium (DMEM, Gibco, cat. no. 41966-029) supplemented with 10% heat-inactivated fetal bovine serum. In preparation of the experiments, cells were plated on poly-L-lysine coated white 96-well plates (Costar: 3917) at the density of 3,00E+04 cells/well. At the moment of seeding, cells were transfected with 25 ng of human MC4R in pcDNA3.1 (+) and 50 ng of p22F GLoSensor plasmid (Promega Corporation), empty pcDNA3.1 (+) vector was added to obtain 100 ng of total DNA, using XtremeGene HP (Roche). […] Next, background luminescence level was recorded using the En Vision 2104 Multilabel Plate Reader (Perkin Elmer). […] After addition of 10 μl of samples luminescence was recorded in a kinetic mode using the En Vision 2104 Multilabel Plate Reader (Perkin Elmer). Data were analyzed using GraphPad Prism 8 by applying nonlinear regression (curve fit).

[4] = pN2113 40 and 100 mg/kg SC QD 14 days

B1: pN2113: single domain antibody (VHH) hIgG1 FC fusion of pN2121, SEQ ID NO: 193 (protein)
chain: QVQLVESGGGLVQPGGSLRLSCAASGSAFSLHWMGWYRQTPGKQRELVAEITKSGSTNYADSAKGRFTISRDNAKNTVYLQMNSLRPEDTAVYYCKARTGRIVRPVDYWGQGTLVTVSS[in this place human IgG1 Fc with changes]
modifications: pN2113 = pN2121-huFc_IgG1 L234A _L235A
total area under the curve (tAUC) of the relative body weight (day 0-14) ([1]; pN2113 40 and 100 mg/kg SC QD): significantly reduced | absolute body weight at the end of the treatment period (day 14) [1, 4]: no significant effect | relative body weight at the end of the treatment period (day 14) [1, 4]: no significant effect

B2: pN0162-huFcIgG1_N297A: Fc-based construct of pN0162 with human IgG1 Fc N297A, SEQ ID NO: 190 (protein)
chain: QVQLVESGGGLVQPGGSLRLSCAASGSAFSLNVMGWYRQTPGNQRALVAEITKDGSTNYADSAKGRFTISRDNAKNTVHLQMDSLKPEDTAVYYCKARTGRIVRPLDYWGQGTQVTVSS[in this place human IgG1 Fc with changes]
modifications: pN0162-huFcIgG1_N297A
Radioligand displacement [2]: 0.89 ± 0.39 nM | EC50 [3]: 34.7 ± 8.9 nM
